This note sets out measurements from PubChem BioAssay (NCI).

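Where inhibition never reached the appropriate level, the endpoint shown equals the highest concentration tested. Otherwise, values were interpolated linearly from a five-concentration, 48-hour dose response in 96-well plates. GI50 is the concentration that inhibits growth by half. Definition used: TGI = concentration required for complete inhibition of growth.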 Bounds are passed on as bounds.

This assay concerns NCI-H322M lung. The experiment in a line: growth of human tumour cells (NCI), 48 h.

As to `O=C(N/N=C/c1ccc(-c2cccc([N+](=O)[O-])c2)o1)c1[nH]c2ccc(Br)cc2c1-c1ccccc1`, the GI50 was 8.37 µM and the TGI was > 100 µM.
For the molecule `O=C(c1ccc(Cl)cc1)C1[C@H](c2ccc(Br)cc2)[C@@H](c2ccccc2)NC12C(=O)Nc1ccccc12` (stereo partly drawn), the GI50 was 7.9 µM and the TGI amounted to 26.6 µM.
In the case of `Cc1cc(C(NC(=O)CCCCCNc2cccc3c2C(=O)N(C2CCC(=O)CC2=O)C3=O)c2cccc(N(C)C)c2)c(O)c2ncccc12` (stereo not drawn), the GI50 is 0.584 µM and the TGI was > 58.5 µM.
As for `COc1cc(NC(=O)c2cc(-c3ccc(F)cc3F)ccc2O)cc(OC)c1OC`, the GI50 is 10.2 µM and the TGI was 28.4 µM.
